# Test results as given in PubChem BioAssay AID686978 (National Center for Advancing Translational Sciences (NCATS), 2013).
# Where “and” joins values, the source holds several entries; their conditions need not be identical. Equal values may be shown once. In all, about 420,000 compounds went through this assay and about 64,000 (15%) were called active. The shares of active, inactive and inconclusive entries below differ from those in the screen. Calls come from the whole dose curve; as a rule, active = well fitted inhibition curve with a large enough effect; inconclusive = small, poorly fitted or top-dose-only effect; inactive = flat fitted curve, though single readings scatter. Potencies of inconclusive entries are left out as doubtful fits.
# Experiment: qHTS for Inhibitors of human tyrosyl-DNA phosphodiesterase 1 (TDP1): qHTS in cells in absence of CPT; note: nearly all actives have a fitted effect of over 55% in size
# Settings: DT40 Tdp1-/- hTDP1 cells, no CPT, ATP luminescence, 48 h; activity change, negative = growth inhibition: at 46.2 µM (top of the series) unless noted
# Summary of the method: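 Chicken DT40 Tdp1-/- cells stably complemented with human TDP1 were seeded at 400 cells/well with DMSO in place of 20 nM camptothecin. After compound pinning, cells grew at least 48 hr at 37 °C; viability read by CellTiter-Glo luminescence.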
# % is set by controls: 0 for no effect and ±100 for the full control effect; potency is the fitted concentration of half-maximal effect; tags give direction and shape of the fitted curve.
Compound,Potency,"activity change, negative = growth inhibition"
Cc1cc(C(=O)CCC(=O)N(C)CC(=O)Nc2ccc(OC(F)(F)F)cc2)c(C)s1,"inconclusive [inhibitor, partial curve]",–
CCCCCOc1ccc(Br)cc1CSC(=N)N,active: 2.31 µM,–
COc1ccc(Cl)cc1NC(=O)CN1CCC(n2nnc3ccccc32)CC1,"inconclusive [inhibitor, single point]",–
Cc1nnc(SCC(=O)Nc2ccc(OC(F)F)c(Cl)c2)n(N)c1=O,inactive,–
CN(Cc1ccc(OC(F)F)cc1)C(=O)C1CCN(S(=O)(=O)c2ccc3c(c2)OCCO3)CC1,"inconclusive [inhibitor, partial curve]",–
CCC(C)n1c(=O)c2sccc2n2c(CCCC(=O)Nc3ccc(F)cc3)nnc12 (stereo unspecified),"inconclusive [inhibitor, single point]",–
CCCC[C@@H]1CC2=C(C(=O)OC(C)(C)O2)[C@@H](c2ccc(Cl)cc2)O1,"inconclusive [inhibitor, single point]",–
NC(c1ccccc1)c1cccs1 (stereo unspecified),inactive,–
O=c1c2ccccc2nc(/C=C/c2c[nH]c3ccccc23)n1-c1ccc([N+](=O)[O-])cc1,"inconclusive [inhibitor, partial curve]",–
CCOC(=O)CN/C=C(\C#N)c1ccc(F)cc1,inactive,–
CC(C)Cn1c(=O)c2c(nc3n2CCCN3Cc2ccccc2)n(C)c1=O,–,inconclusive: -30.5% [inhibitor]
O=C(C[n+]1cccc(C(=O)Nc2ccccc2)c1)c1ccccc1,active: 18.4 µM,–
Cc1ccc(SCC(=O)Nc2ccc(O)c(-c3nc4cc(C)ccc4o3)c2)cc1,active: 20.6 µM,–
Cc1ccc(NC(=O)NC(C)c2c(-n3cccc3)sc(C)c2C)c(C)c1 (stereo unspecified),"inconclusive [inhibitor, single point]",–
COC(CSc1ncnc2c1oc1nc3c(cc12)COC(C)(C)C3)OC,"inconclusive [inhibitor, single point]",–
COc1ccc(-c2nn(-c3ccccc3)cc2C(=O)Nc2ccc(C(=O)O)cc2)cc1,–,inconclusive: -10.7% [inhibitor]
C=CCn1c(C(C)NC(=O)c2cccc(C)c2)n[nH]c1=S (stereo unspecified),inactive,–
CCC(Sc1ccc2nnc(-c3ccc(F)cc3)n2n1)C(=O)O (stereo unspecified),–,inconclusive: -25.8% [inhibitor]
Cc1ccc2c(C)nc(/N=C(\N)NC(=O)N3c4ccccc4Sc4ccccc43)nc2c1,active: 18.4 µM and active: 20.6 µM,–
O=C(NC(CSC(=O)c1ccccc1)C(=O)O)OCc1ccccc1 (stereo unspecified),inactive,–
CC(C)c1ccc(NC(=S)NC2CCN(Cc3ccccc3)CC2)cc1,active: 23.1 µM,–
Cc1ccccc1-n1c(SCC(=O)c2ccccc2)nnc1-c1ccc(F)cc1,"inconclusive [inhibitor, single point]",–
CC(=O)c1ccc(OCCCC(=O)Nc2cccc(S(=O)(=O)N3CCCCC3)c2)cc1,"inconclusive [inhibitor, single point]",–
COc1ccc(C2N=C(N)N=C(N)N2c2ccc(C)cc2)cc1 (stereo unspecified),"inconclusive [inhibitor, partial curve]",–

Compound,Potency,"activity change, negative = growth inhibition"
CCc1ccc(NC(=O)C(=O)NCCOc2ccccc2Cl)cc1,active: 23.1 µM,–
COc1ccc(C2(C)NC(=O)N(CC(=O)c3cc(C)n(C4CC4)c3C)C2=O)cc1OC (stereo unspecified),active: 13 µM,–
CCC1Oc2ccccc2N(CC(=O)N2CCOCC2)C1=O (stereo unspecified),inactive,–
COCOCCn1cc(CN2CCS(=O)(=O)N(Cc3ccc(-c4ccc(Cl)cc4)cc3)C(C)C2=O)nn1 (stereo unspecified),active: 20.6 µM,–
O=C(Nc1cccc(C(F)(F)F)c1)Nc1nnc([C@@H]2C[C@H](O)[C@@H](CO)O2)s1,"inconclusive [inhibitor, partial curve]",–
COc1cc(OC)cc(C(=O)Nc2cc(NC(=O)c3ccco3)ccc2OC)c1,active: 18.4 µM,–
Oc1cccc(/C=N/N2CCN(c3ccccn3)CC2)c1,inactive,–
O=C(COc1ccc(Cl)cc1)NNC(=O)C(=O)NC1CCCCC1,inactive,–
O=C(COC(=O)CCC(=O)c1ccc(F)cc1)Nc1nnc(-c2ccccc2)o1,"inconclusive [inhibitor, partial curve]",–
COc1ccc(NC(=O)c2cc3nc(-c4ccccc4)cc(-c4ccccc4)n3n2)c(OC)c1,active: 10 µM,–
COc1ccc(CNc2nc(-c3ccccc3)nc3ccccc23)cc1OC,"inconclusive [inhibitor, single point]",–
C=CCn1c(SCc2cc(C(C)=O)ccc2OCC)nc2ccccc2c1=O,active: 0.82 µM,–
COC(=O)c1[nH]c2cc(C)ccc2c1NC(=O)CN1CCc2cc(OC)c(OC)cc2C1,"inconclusive [inhibitor, single point]",–
Cc1ccc(NC(=O)CS(=O)(=O)c2c[nH]c3ccccc23)c(C)c1,inactive,–
Cc1cc(Cl)ccc1N(CC(=O)NCc1ccc2c(c1)OCO2)S(C)(=O)=O,"inconclusive [inhibitor, single point]",–
COC(=O)c1ccc(C(=O)OC)c(NC(=O)CSc2nc(-c3ccco3)cc(C(F)(F)F)n2)c1,"inconclusive [inhibitor, single point]",–
Cc1ccc(C)c(N2CCN(C(=O)c3ccc(NS(=O)(=O)c4c(C)noc4C)cc3)CC2)c1,"inconclusive [inhibitor, single point]",–
CC(C(=O)OCC(=O)c1ccc([N+](=O)[O-])cc1)N1C(=O)C2C3CCC(C3)C2C1=O (stereo unspecified),"inconclusive [inhibitor, single point]",–
O=C(Nc1ccccc1)C1CCN(S(=O)(=O)c2ccc3c(c2)CCCN3C(=O)C2CCC2)CC1,"inconclusive [inhibitor, single point]",–
Cc1cc(C)c2cc(C#N)c(N3CCCN(S(=O)(=O)c4ccccc4)CC3)nc2c1,–,inconclusive: -26.8% [inhibitor]
O=C(O)CCc1ccc(-c2ccc(Cl)cc2)n1Cc1ccco1,inactive,–
Cc1onc(-c2ccccc2)c1C(=O)N=C(N)c1ccc(Cl)cc1,"inconclusive [inhibitor, single point]",–
Cc1ccc(CNC(=O)CCCCCn2c(=O)c3sccc3n(CC(=O)C(C)(C)C)c2=O)cc1,"inconclusive [inhibitor, single point]",–
CCOc1ccc2nc(N3C(=O)/C(=C/c4ccc(Cl)cc4)NC3=S)sc2c1,active: 10.3 µM,–

Compound,Potency,"activity change, negative = growth inhibition"
CC(=O)Nc1nc2ccc(C(=O)NC3CCCCC3)cc2s1,"inconclusive [inhibitor, single point]",–
CCN(CC)CCNC(=O)c1cc2c(-c3ccc(Cl)cc3)nn(C)c2s1,"inconclusive [inhibitor, partial curve, poor fit]",–
O=C(CC[C@H]1O[C@@H](n2cnc3c(NC(=O)c4ccccc4)ncnc32)[C@H](O)[C@@H]1O)NCC1CCN(Cc2ccccc2)CC1,inactive,–
COc1ccc(Cn2c(CCC(=O)Nc3cc(C)cc(C)c3)nc3cccnc32)cc1,"inconclusive [inhibitor, partial curve]",–
Cc1cc2c(nc1C)CCCN2C[C@@H](C)O/N=C1/[C@H]2CCn3c(=O)n(-c4ccccc4)c(=O)n3[C@H]2[C@H](O)[C@@H]2O[C@H]12,"inconclusive [inhibitor, single point]",–
CCCCN(C(=O)CSc1nc2ccccc2n1CC)C1CCS(=O)(=O)C1 (stereo unspecified),inactive,–
COc1ccccc1N1C(=O)c2cccc3c(Cl)ccc(c23)C1=O,active: 13 µM,–
CN(C)c1ccnc(-n2cccc2/C=N/OCc2ccccc2)c1C#N,–,inconclusive: -37.6% [inhibitor]
CSc1ccc(/C=C(/NC(=O)c2ccco2)C(=O)N2CCOCC2)cc1,inactive,–
O=C(COc1ccccc1Br)Nc1ccccc1C(F)(F)F,"inconclusive [inhibitor, single point]",–
N#Cc1ccc(C(C(=O)Nc2ccc3c(c2)OCCO3)n2c(=O)c(-c3ccco3)nc3ccccc32)cc1 (stereo unspecified),inactive,–
O=C(C[n+]1ccccc1)Nc1cc(C(F)(F)F)ccc1Cl,inactive,–
COc1ccc(OC)c(NC(=O)C(C)SCc2nc3sc(C)c(C)c3c(=O)[nH]2)c1 (stereo unspecified),"inconclusive [inhibitor, single point]",–
C/C(=N\Nc1cccc(Cl)c1)C1(C)N(O)C(C)(C)C(c2ccco2)=[N+]1[O-] (stereo unspecified),"inconclusive [inhibitor, single point]",–
C/C(=N\OC(=O)Nc1ccccc1)c1cnn(-c2cc(C(F)(F)F)cc(C)n2)c1C,inactive,–
CC1CC(C)CN(CCCNC(=O)c2ccc3c(c2)N(Cc2ccccc2)C(=O)c2ccccc2S3=O)C1 (stereo unspecified),"inconclusive [inhibitor, single point]",–
COc1cccc(CN2CCN(Cc3ccc(O)cc3)CC2CCO)c1 (stereo unspecified),inactive,–
Cc1nn(-c2ccccc2)c(Cl)c1/C=N/NC(=O)c1nn(C)cc1[N+](=O)[O-],inactive,–
c1cncc(-c2nn3c(Cn4cnc5ccccc54)nnc3s2)c1,"inconclusive [inhibitor, single point]",–
Cc1ccc(NC(=O)CSc2nc(=O)n(Cc3ccncc3)c3c2CCC3)cc1Cl,"inconclusive [inhibitor, single point]",–
COc1cc(NC(C)CCCN)c2nc(C)ccc2c1Oc1ccc(F)cc1 (stereo unspecified),active: 10.3 µM,–
O=C(OCC(=O)C12CC3CC(CC(C3)C1)C2)c1cccnc1,inactive,–
O=C(Cc1ccccc1[N+](=O)[O-])NCC(O)c1ccc2c(c1)OCO2 (stereo unspecified),inactive,–
